Measured values taken from the supplement of paper PMC3334620.
Over roughly 33,000 sequences, “E-score (-0.5 to 0.5)” has its median near -0.035; the highest 2% begin near 0.34. Some of the results follow.

molecular target: T1, Mot3 (UniProt P54785); test: PBM E-score (8-mer binding enrichment) (E-score (-0.5 to 0.5)); higher = stronger / more preferred TF binding; most listed sequences are background and not binding sites; settings: protein concentration: 200 nM; construct: GST-full length
T1 sequence: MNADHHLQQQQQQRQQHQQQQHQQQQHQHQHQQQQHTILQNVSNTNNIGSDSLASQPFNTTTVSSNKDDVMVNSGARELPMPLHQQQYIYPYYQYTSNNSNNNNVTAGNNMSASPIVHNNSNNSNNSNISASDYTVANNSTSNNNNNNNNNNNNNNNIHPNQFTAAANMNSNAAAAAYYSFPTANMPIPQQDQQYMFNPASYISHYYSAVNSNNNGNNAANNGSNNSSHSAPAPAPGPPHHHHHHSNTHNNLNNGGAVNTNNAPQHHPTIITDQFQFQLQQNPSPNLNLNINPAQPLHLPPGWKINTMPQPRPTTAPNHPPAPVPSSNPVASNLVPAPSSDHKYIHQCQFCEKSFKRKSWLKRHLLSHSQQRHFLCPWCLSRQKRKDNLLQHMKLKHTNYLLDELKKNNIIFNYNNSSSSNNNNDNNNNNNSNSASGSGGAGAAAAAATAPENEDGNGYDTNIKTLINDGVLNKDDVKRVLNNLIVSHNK
In short: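 Each ungapped eight-base word and its reverse complement, pooled, received an E-score from the Universal PBM Analysis Suite. Underlying scans, normalised with masliner, recorded fluorescent anti-GST bound to GST-tagged yeast transcription factors. These were applied at about 100-200 nM to universal all-10-mer Agilent arrays double-stranded by primer extension.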

| Sequence | PBM E-score |
| --- | --- |
| CTAAACAG | -0.0477 |
| AACCCGCG | 0.117 |
| CCGTACCA | -0.0244 |
| CGTTACCA | 0.0991 |
| ATTACTTA | 0.146 |
| CTTATTTC | 0.0522 |
| CCGGTTTA | -0.141 |
| AGGCCAGA | -0.0549 |
| CATTTAAA | 0.0821 |
| CCACCGGG | -0.331 |
| GTCATAAC | 0.0307 |
| CATCACTA | 0.0413 |
| GAATCATA | -0.0348 |
| AAAAGTGC | -0.0352 |
| GCACCGAC | -0.0737 |
| AGTTTTTG | 0.0757 |
| GATTTACA | 0.332 |
| AGATAACG | 0.088 |
| GGATTAGA | -0.13 |
| CACTACGA | 0.0203 |
| GAAGCTGA | -0.00783 |
| GAACGACA | 0.0296 |
| GCCTCCCA | -0.0636 |
| GGCAGGAC | -0.14 |
| CATAATGC | -0.0264 |

| Sequence | PBM E-score |
| --- | --- |
| CACTGTAC | -0.0818 |
| ACGTTGCT | 0.0179 |
| GCGTGACA | 0.0371 |
| CTGCTATA | -0.0552 |
| CCTAAGCA | -0.12 |
| CATTCCCC | -0.157 |
| CGGTTTTA | -0.158 |
| ACCATGTC | 0.223 |
| CAATCGAG | -0.403 |
| GCGCTGCC | -0.186 |
| GAAATGCA | -0.0288 |
| CGACGGCA | -0.155 |
| AAGCTCTA | 0.0454 |
| ATCACGGG | -0.25 |
| CCGAATTC | -0.242 |
| GGTAATTA | 0.217 |
| GACATGAC | 0.175 |
| GGAAGTAA | -0.0559 |
| CGCTGGAA | -0.301 |
| GACATTCA | 0.0236 |
| CGCGCTGA | -0.119 |
| AGCAGTCC | -0.206 |
| CCGTATGA | -0.0739 |
| GTACACGA | 0.327 |
| TTACTGAA | 0.128 |

| Sequence | PBM E-score |
| --- | --- |
| ATAGATAC | 0.0299 |
| CGCCTTAC | 0.0872 |
| GAAAAGAC | 0.00906 |
| CAAAAGGG | -0.0933 |
| TCTGCTCA | -0.261 |
| GAAAAAAA | 0.114 |
| CCGGTTTC | -0.155 |
| AGGCCCTG | 0.0149 |
| GACAAATC | -0.0753 |
| CTAAGACA | 0.0823 |
| CCTGCGTA | 0.304 |
| AACTGTTA | 0.0765 |
| AACCGAGT | -0.224 |
| CAAAGCTG | 0.0231 |
| AAGGTTAT | 0.0647 |
| GGCATACC | -0.0991 |
| ATATGAGC | -0.232 |
| CAATAAGC | -0.159 |
| AGTAGTAC | 0.188 |
| GCATCGCC | -0.153 |
| GACCGAAC | -0.0324 |
| ATGAGACA | -0.0369 |
| AGTGCGTG | -0.0225 |
| GAGTGGCC | -0.293 |
| AATGGTTC | 0.182 |

| Sequence | PBM E-score |
| --- | --- |
| ACACGTCG | 0.233 |
| GGCAAAGA | 0.157 |
| TATGCGCA | -0.18 |
| AAGGTAAG | 0.27 |
| GTGACTTA | 0.127 |
| ACGCCTGA | 0.207 |
| CATTTGGC | 0.0177 |
| GACGGCAA | 0.00196 |
| CGCAAGCC | 0.0673 |
| ACTTTCCT | 0.383 |
| ATGACTTC | -0.073 |
| CCCAATTC | 0.143 |
| AGTAAGGA | -0.00567 |
| TAACCCAA | 0.0504 |
| CGTCGAGC | -0.0948 |
| TCATGGCA | -0.284 |
| GGCAGGGA | -0.158 |
| ACGCGACC | 0.112 |
| CAATCGCG | -0.0227 |
| CATTATAG | 0.0628 |
| GCAGTTAC | 0.0241 |
| ACCGTTAC | -0.0628 |
| GACGCCTC | 0.0387 |
| GGGAATTA | 0.098 |
| CACTCTAA | -0.144 |

| Sequence | PBM E-score |
| --- | --- |
| CGTAGCTC | -0.0378 |
| AAGAAGGC | 0.193 |
| CATTTAAG | -0.00232 |
| GTAAAGAA | 0.279 |
| CGAATGAC | 0.186 |
| CCTCATCA | 0.0473 |
| TCGATTCA | 0.0298 |
| ATACGAAT | 0.0856 |
| CCCACGCC | -0.154 |
| ATCTCTCG | -0.0893 |
| GTTACAGA | -0.0831 |
| GACCTTGC | -0.156 |
| GCATAGCA | 0.0235 |
| AAGTTTAT | 0.0421 |
| AGGTGCAC | -0.0519 |
| AAACTCCT | -0.183 |
| AATATAGA | 0.114 |
| ACAGAAAA | 0.0442 |
| CCGCAAGA | -0.238 |
| AGATCATA | 0.11 |
| CACCCATG | 0.0598 |
| CACTACTA | -0.0102 |
| ATTCGCAA | 0.0104 |
| AAAGGCAA | 0.486 |
| GTATCCCA | -0.0988 |

| Sequence | PBM E-score |
| --- | --- |
| GGGGTCTA | -0.0481 |
| ATCCTATA | 0.0259 |
| ATGTCCAC | -0.0166 |
| GACCGTAC | -0.159 |
| CACTGAAA | 0.107 |
| CAAGTCCC | -0.248 |
| GTGGGACA | -0.0726 |
| ACGTCACC | -0.127 |
| CGATAATC | -0.267 |
| GATTACAC | 0.419 |
| GCAAGGGA | -0.155 |
| ATATTATC | -0.0118 |
| ACCTTCAC | 0.175 |
| AGCGGGTG | -0.109 |
| CTAGGCCC | -0.21 |
| CATAGCCA | -0.201 |
| AGTCGCTA | 0.0503 |
| GTCGCCTA | 0.106 |
| AGCGAGCA | -0.108 |
| CGAGCCAA | -0.107 |
| CCACGGAC | -0.286 |
| ACACCAGG | -0.057 |
| AAATCAAC | 0.0454 |
| CTCGCTCC | -0.139 |
| ACGCGGGC | 0.128 |

| Sequence | PBM E-score |
| --- | --- |
| AATACGCA | 0.275 |
| AGGTATTC | 0.21 |
| GTTATGCA | 0.0433 |
| AAAAAACA | 0.252 |
| ACCCGGAC | -0.146 |
| ATTATCTA | 0.193 |
| GACATGTC | 0.191 |
| GGATCCGA | -0.291 |
| GGCTACCC | -0.196 |
| ATCATACC | 0.0808 |
| GAAGGCGA | -0.0248 |
| CCCGTGTA | 0.376 |
| CAGAGCGG | -0.172 |
| AGTTGTTG | 0.197 |
| CCTGCCTA | 0.244 |
| ATATACTA | 0.0627 |
| TCAGTCGA | -0.176 |
| CCTGAGAA | 0.173 |
| AAGAAACG | 0.0311 |
| CCCGGAAC | -0.206 |
| AACTGTAA | 0.127 |
| GAGGCCGC | -0.142 |
